The RNAGym collection of RNA variant scans (doi:10.7554/elife.90254)
The source gives no read counts; variants with many changes may rest on few reads.

B1: LINE1-mini (parent)
chain: GGCAGAGCUCAACACAGCGUGGCAAAGUGGCUGUGGCUAGACUGCC

Variants of: B1
Test: self-cleavage, relative activity (ratio to wild type); higher = more cleavage; in vitro, sequencing; the parent is a self-cleaving ribozyme

Which self-cleavage does the source give for GGCAGAGCUCAACACAUCCUGGCAAAGUGUCUGUGGCUAGACUAAC [G17U G19C G30U G44A C45A] here?
Its self-cleavage is 0.04.

Which self-cleavage does the source give for GGCAGAGCUCAACACAUCCAGGCAAAGUUUCUGUGGCUAGACUGCC [G17U G19C U20A G29U G30U] here?
The self-cleavage was 0.49.

Which self-cleavage does the source give for GGCAGAGCUCAACACAUCUUGGCAUAGUGGCUGUGGCUAGACUGCC [G17U G19U A25U] here?
The self-cleavage was 0.34.

With GGCAGAGCUCAACACAUCUUGUCACAGUGCCUGUGGCUAGACUGCC [G17U G19U G22U A25C G30C] as the variant, how does the self-cleavage read?
The self-cleavage was 0.13.

Which self-cleavage does the source give for GGCAGAGCUCAACACAUCUUGGCAAAGCGGCUGUGGCUAGACUGCC [G17U G19U U28C] here?
Its self-cleavage is 0.04.

Which self-cleavage does the source give for GGCAGAGCUCAACACAUCUUGGCAAAGUGGCUGAGGCUAGGCUGCC [G17U G19U U34A A41G] here?
The self-cleavage was 0.01.

Which self-cleavage does the source give for GGCAGAGCUCAACACAUCGUAGCAGAGUGACUGUGGCAAGACUGCC [G17U G21A A25G G30A U38A] here?
The self-cleavage was 0.15.

For GGCAGAGCUCAACACAUCGUAGAAAAGUGGCUGUGGCUAGACUUCC [G17U G21A C23A G44U], which self-cleavage is on record?
The self-cleavage was 0.01.

Which self-cleavage does the source give for GGCAGAGCUCAACACAUCGUAGCAAAGUGGCUGUGUAUAGACUGCC [G17U G21A G36U C37A] here?
The self-cleavage was 0.06.

Which self-cleavage does the source give for GGCAGAGCUCAACACAUCGUCGCAAAUUGGCUGUGGCUAGACUGCA [G17U G21C G27U C46A] here?
Its self-cleavage is 0.17.

Which self-cleavage does the source give for GGCAGAGCUCAACACAUCGUUGCAAAGUCGCUGUGGCUAGACUGCC [G17U G21U G29C] here?
Its self-cleavage is 2.97.

With GGCAGAGCUCAACACAUCGUUGCAAAGUGGCUGUGGCUAUAAUGAC [G17U G21U G40U C42A C45A] as the variant, how does the self-cleavage read?
The self-cleavage was 0.06.

For GGCAGAGCUCAACACAUCGUUGCAAAGCGGCUGUGGCUAGACUGCC [G17U G21U U28C], which self-cleavage is on record?
The self-cleavage was 0.55.

For GGCAGAGCUCAACACAUCGUUGCAAAGUGGCUGAGGCUAAACCGCC [G17U G21U U34A G40A U43C], which self-cleavage is on record?
The self-cleavage was 0.02.

Which self-cleavage does the source give for GGCAGAGCUCAACACAUCGUGACAAAGUGGCUGUGGCUCCACUGCC [G17U G22A A39C G40C] here?
The self-cleavage was 0.05.

Which self-cleavage does the source give for GGCAGAGCUCAACACAUCGUGCCAAAGUGGCUGUGGCUAUAAUGCC [G17U G22C G40U C42A] here?
The self-cleavage was 0.04.

With GGCAGAGCUCAACACAUCGUGCCAAAGCGGCAGUUGCUAUUCUGCC [G17U G22C U28C U32A G35U G40U A41U] as the variant, how does the self-cleavage read?
The self-cleavage was 0.05.

For GGCAGAGCUCAACACAUCGUGUCAAAGUGGCUGUGGUUAGACUGCC [G17U G22U C37U], which self-cleavage is on record?
Its self-cleavage is 0.04.

For GGCAGAGCUCAACACAUCGUGUCAAAGUGGCUGUGGCUAGACUCCC [G17U G22U G44C], which self-cleavage is on record?
Its self-cleavage is 0.14.

For GGCAGAGCUCAACACAUCGUGGCAAACUGGCUGUGGCUAGACUGCA [G17U G27C C46A], which self-cleavage is on record?
Its self-cleavage is 0.22.

For GGCAGAGCUCAACACAUCGUGGCAAAGUUGCUGCGGCUAGACUGCC [G17U G29U U34C], which self-cleavage is on record?
Its self-cleavage is 0.05.

With GGCAGAGCUCAACACAUCGUGGCAAAGUGCCUGUGGCUAGUUUGCC [G17U G30C A41U C42U] as the variant, how does the self-cleavage read?
Its self-cleavage is 0.01.

With GGCAGAGCUCAACACAUCGUGGCAAAGUGGCUAGGGCUAGACUGCG [G17U G33A U34G C46G] as the variant, how does the self-cleavage read?
Its self-cleavage is 0.01.

Which self-cleavage does the source give for GGCAGAGCUCAACACAUCGUGGCAAAGUGGCUCUUGCUAGACUGCC [G17U G33C G35U] here?
Its self-cleavage is 0.02.

Which self-cleavage does the source give for GGCAGAGCUCAACACAUCGUGGCAAAGUGGCUUUGGAUAGACUGCC [G17U G33U C37A] here?
Its self-cleavage is 0.08.

For GGCAGAGCUCAACACAUCGUGGCAAAGUGGCUGUAGCUAUACUGCC [G17U G35A G40U], which self-cleavage is on record?
The self-cleavage was 0.02.

For GGCAGAGCUCAACACAUCGUGGCAAAGUGGCUGUUGCUGGACUGCC [G17U G35U A39G], which self-cleavage is on record?
The self-cleavage was 0.02.

For GGCAGAGCUCAACACAUCGUGGCAAAGUGGCUGUUGCUAGAAUGCG [G17U G35U C42A C46G], which self-cleavage is on record?
The self-cleavage was 0.03.

Which self-cleavage does the source give for GGCAGAGCUCAACACAUCGUGGCAAAGUGGCUGUGACUAGAGUGCC [G17U G36A C42G] here?
Its self-cleavage is 0.04.

Which self-cleavage does the source give for GGCAGAGCUCAACACAUCGAGGCAUAGUGGCUGUGGCUAGACUGCC [G17U U20A A25U] here?
Its self-cleavage is 0.04.

For GGCAGAGCUCAACACAUCGAGGCAUAUUGUCUGUGGCUAGACUGCC [G17U U20A A25U G27U G30U], which self-cleavage is on record?
Its self-cleavage is 0.21.

With GGCAGAGCUCAACACAUCGGGGGAAAGCGGCUGUGGCUAGACUGCC [G17U U20G C23G U28C] as the variant, how does the self-cleavage read?
The self-cleavage was 0.05.

Which self-cleavage does the source give for GGCAGAGCUCAACACAUCGGGGCAAAGUGGCUGUGGCUAGAUUGCC [G17U U20G C42U] here?
Its self-cleavage is 0.01.

Which self-cleavage does the source give for GGCAGAGCUCAACACAUCGGGGCAAAAUGGCUGUGGUUAGACUGCC [G17U U20G G27A C37U] here?
The self-cleavage was 0.02.

Which self-cleavage does the source give for GGCAGAGCUCAACACAUCGGGGCAAAGUGGCUGUUGCUAGACUGUC [G17U U20G G35U C45U] here?
The self-cleavage was 0.01.

Which self-cleavage does the source give for GGCAGAGCUCAACACAUCGGGGCAAAGUGGCAGUGGCUAGACUGCC [G17U U20G U32A] here?
The self-cleavage was 0.11.

With GGCAGAGCUCAACACAUCGUGGCAAAGUGGCGGUGGCUAGACUACC [G17U U32G G44A] as the variant, how does the self-cleavage read?
The self-cleavage was 0.07.

For GGCAGAGCUCAACACAUCGUGGCAAAGUGGCUGGGGGUAGUCUGCC [G17U U34G C37G A41U], which self-cleavage is on record?
The self-cleavage was 0.01.

For GGCAGAGCUCAACACAUCGUGGCAAAGUGGCUGGGGUUAGACUGCC [G17U U34G C37U], which self-cleavage is on record?
The self-cleavage was 0.04.

Which self-cleavage does the source give for GGCAGAGCUCAACACAUCGUGGCAAAGUGGCUGUGGCCAGACUGAC [G17U U38C C45A] here?
The self-cleavage was 0.01.

Which self-cleavage does the source give for GGCAGAGCUCAACACAUCGUGGCAAAGUGGCUGUGGCGAGACUUCC [G17U U38G G44U] here?
The self-cleavage was 0.02.

For GGCAGAGCUCAACACAGAGUGGCCAUGUGGCUGUGGCUAGACUGCU [C18A A24C A26U C46U], which self-cleavage is on record?
The self-cleavage was 0.1.

For GGCAGAGCUCAACACAGAGUGGCGAAUGGGAUCUGGCUAGACUGCC [C18A A24G G27U U28G C31A G33C], which self-cleavage is on record?
Its self-cleavage is 0.01.

For GGCAGAGCUCAACACAGAGUGGCGAAGUGGCGGUGGCUAGACUGCC [C18A A24G U32G], which self-cleavage is on record?
The self-cleavage was 0.13.

With GGCAGAGCUCAACACAGAGUGGCUAUGUGGCUGUGGCUAGACUGCC [C18A A24U A26U] as the variant, how does the self-cleavage read?
Its self-cleavage is 0.08.

Which self-cleavage does the source give for GGCAGAGCUCAACACAGAGUGGCUAAGUGGAUGUGUCUAGACUGCC [C18A A24U C31A G36U] here?
Its self-cleavage is 0.03.

With GGCAGAGCUCAACACAGAGUGGCUAAGUGGCUGUGGGUAGACUGCC [C18A A24U C37G] as the variant, how does the self-cleavage read?
The self-cleavage was 0.02.

For GGCAGAGCUCAACACAGAGUGGCUAAGUGGCUGUGGCUAGACUGUC [C18A A24U C45U], which self-cleavage is on record?
Its self-cleavage is 1.6.

With GGCAGAGCUCAACACAGAGUGGCACAGUGGAUCUGGCUAGACUGCC [C18A A25C C31A G33C] as the variant, how does the self-cleavage read?
Its self-cleavage is 0.05.

With GGCAGAGCUCAACACAGAGUGGCAGAGUGGCUGUGGCUCGACUGCC [C18A A25G A39C] as the variant, how does the self-cleavage read?
The self-cleavage was 0.01.

Which self-cleavage does the source give for GGCAGAGCUCAACACAGAGUGGCAGAGUGGCUGUGGCUAGGCUGCC [C18A A25G A41G] here?
Its self-cleavage is 0.05.

For GGCAGAGCUCAACACAGAGUGGCAGAGUGUCAGUGGCUAGACUGCC [C18A A25G G30U U32A], which self-cleavage is on record?
The self-cleavage was 0.09.

With GGCAGAGCUCAACACAGAGUGGCAGAGUGGCUCUGGCUAGACUUCC [C18A A25G G33C G44U] as the variant, how does the self-cleavage read?
Its self-cleavage is 0.02.

For GGCAGAGCUCAACACAGAGUGGCAUAGUGGUUGUGGCUAGACUGCC [C18A A25U C31U], which self-cleavage is on record?
The self-cleavage was 0.01.

For GGCAGAGCUCAACACAGAGUGGCAUAGUGCCUGUGGCUAGGCUGCC [C18A A25U G30C A41G], which self-cleavage is on record?
Its self-cleavage is 0.02.

With GGCAGAGCUCAACACAGAGUGGCAAGGUGGCUUUGGCUAGACUGUC [C18A A26G G33U C45U] as the variant, how does the self-cleavage read?
Its self-cleavage is 0.05.
